Results taken from the supplement of paper PMC4166925.
± gives the standard deviation of the averaged measurements. Whole data set: some 33,000 sequences, median “E-score (dimensionless, -0.5 to 0.5)” near -0.046, cut for the highest 2% near 0.36. Some of the results follow.

The sequences below were run on T1, SpTbr T-box DNA-binding domain (GST fusion) (assay: PBM E-score of 8-mer (E-score (dimensionless, -0.5 to 0.5)); Tbr is Tbrain of the sea star Patiria miniata (Pm) or the sea urchin Strongylocentrotus purpuratus (Sp); higher = stronger binding preference; most listed sequences are background and not binding sites). Details: the construct has about 5 more residues each side.
T1 sequence: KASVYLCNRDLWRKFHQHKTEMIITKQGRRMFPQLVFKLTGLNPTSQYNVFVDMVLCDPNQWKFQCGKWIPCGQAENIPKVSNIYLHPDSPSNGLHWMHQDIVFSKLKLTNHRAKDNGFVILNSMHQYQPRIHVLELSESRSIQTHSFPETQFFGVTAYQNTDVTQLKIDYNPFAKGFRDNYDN
Procedure, shortened: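 Using the Universal PBM Analysis Suite, every ungapped 8-mer received an enrichment E-score averaged over duplicate arrays. Probe intensities came from double-stranded Universal Agilent oligonucleotide arrays incubated with 200 nM GST-fused Tbr T-box DNA-binding domain in PBS (pH 7.5). That protein was expressed in BL21 E. coli at 20 °C and purified by glutathione affinity chromatography.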

Point of comparison: AAGACCAA, “PBM E-score of 8-mer” value -0.233 ± 0.068. Against it:
- GAGGTTCA — higher, -0.0617 ± 0.056
- ATCACCCC — higher, 0.232 ± 0.013
- AACTTATC — higher, -0.00715 ± 0.012
- GCGCGTCC — higher, 0.0329 ± 0.089
- AGCCCAGA — higher, -0.0897 ± 0.026
- CCTAGCCG — higher, -0.117 ± 0.024
- CTAAAAAC — higher, -0.0726 ± 0.048
- AAACTATG — within error, -0.131 ± 0.049
- ACGTTAAA — higher, -0.142 ± 0.022
- CCCTGCGC — higher, 0.121 ± 0.06
- TCGTGTCA — higher, 0.294 ± 0.0086
- ACTGATTA — higher, -0.115 ± 0.02
- CGTTAAAG — higher, 0.156 ± 0.0087
- CGTGCTTC — within error, -0.16 ± 0.011
- CCACGTAG — higher, 0.111 ± 0.0044
- AAGGGGCG — higher, 0.159 ± 0.01
- GCGCTTCA — higher, 0.0495 ± 0.077
- GAGACTGC — within error, -0.172 ± 0.0027
- CGAAGCTA — higher, -0.0815 ± 0.044
- GCAACAAA — higher, 0.15 ± 0.024
- CCGACAGA — higher, 0.0962 ± 0.028
- CGCCTCTA — higher, 0.0534 ± 0.033
- CCCCACAA — higher, 0.179 ± 0.0035
- ACATTACG — higher, -0.000135 ± 0.015
- ATGCTTGC — higher, -0.0178 ± 0.079
- CTGTACAG — higher, 0.039 ± 0.044
- AGGATCCT — higher, -0.00585 ± 0.095
- CTTTGGGA — within error, -0.144 ± 0.032
- CGGCGCCC — higher, 0.0161 ± 0.043
- GAGCTCAA — within error, -0.193 ± 0.0096
- ATCGGGGA — within error, -0.27 ± 0.037
- AGCGGATA — higher, -0.0726 ± 0.019
- CGGCTCTC — higher, -0.0922 ± 0.065
- CTAACAAG — higher, 0.168 ± 0.051
- ACGTTCCT — higher, -0.0781 ± 0.049
- GGAATACA — within error, -0.232 ± 0.053
- ACCAAGAG — higher, 0.0246 ± 0.0012
- ACGACCAC — higher, -0.055 ± 0.024
- AGAGGCGC — higher, 0.179 ± 0.044
- GGCTAGAA — higher, -0.0594 ± 0.0051
- ACGCCCCT — higher, 0.227 ± 0.029
- AGAGTGAA — higher, 0.136 ± 0.019
- ACGGTAGC — higher, 0.0609 ± 0.11
- CTCGCTTC — higher, 0.144 ± 0.0036
- ACATATGG — higher, 0.184 ± 0.06
- GGCGCAGA — higher, 0.0595 ± 0.023
- CTACAACC — higher, -0.103 ± 0.034
- AACGTCGA — within error, -0.183 ± 0.11
- CAAACGTG — higher, 0.279 ± 0.018
- TAGCATAA — higher, -0.151 ± 0.0099
- CACAATAG — higher, 0.0976 ± 0.074
- GGCCGGAA — within error, -0.212 ± 0.025
- AAGACGGG — within error, -0.179 ± 0.038
- GACCGTAA — higher, -0.00484 ± 0.024
- AGACGGAC — within error, -0.231 ± 0.093
- CAGCTCTC — higher, 0.00347 ± 0.047
- CAGCAGTA — higher, -0.0514 ± 0.03
- GCATTACC — within error, -0.103 ± 0.064
- TAGGACTA — within error, -0.305 ± 0.011
- AAATCTTG — within error, -0.223 ± 0.024
- ATCCCCCA — higher, -0.134 ± 0.012
- GCCTAAGC — within error, -0.159 ± 0.006
- ACTGGAAG — within error, -0.163 ± 0.009
- GAACGCCC — higher, 0.138 ± 0.0086
- AATTTGGC — higher, 0.035 ± 0.077
- ACGAGCGC — higher, -0.112 ± 0.037
- AATTACGT — higher, -0.0995 ± 0.054
- ATGTGATA — higher, 0.254 ± 0.024
- ATTCGCCG — higher, -0.0403 ± 0.033
- CGCGTAAG — higher, 0.238 ± 0.041
- CGACACCA — higher, 0.387 ± 0.014
- CAGCGCCA — higher, 0.0938 ± 0.059
- CAATTATC — higher, 0.13 ± 0.057
- GTAGCGAA — higher, 0.0193 ± 0.057
- AGGGTTTA — higher, -0.111 ± 0.019
- TCTTTAAA — within error, -0.159 ± 0.034
- ATTGAGGG — within error, -0.243 ± 0.003
- CCGCTCCC — higher, -0.0507 ± 0.026
- AGACTCAC — higher, 0.0502 ± 0.0099
- ATAAGTAT — within error, -0.165 ± 0.04
- CTTCGTTA — higher, -0.0171 ± 0.094
- CAGGTTAG — higher, -0.0345 ± 0.013
- ATATCTAG — within error, -0.28 ± 0.02
- CGGCCGCC — higher, 0.0556 ± 0.025
- AATTGTGC — higher, 0.141 ± 0.035
- CCTATCGA — higher, 0.042 ± 0.12
- CTCCCACC — higher, 0.292 ± 0.039
- CGTCAGGC — higher, 0.0421 ± 0.067
- GAGGCCGA — within error, -0.168 ± 0.14
- GCGTACGA — within error, -0.165 ± 0.032
- TAATAGGA — within error, -0.167 ± 0.025
- ACTTTATG — higher, 0.00571 ± 0.017
- CGTCTAGA — within error, -0.287 ± 0.12
- GATGCCAA — within error, -0.181 ± 0.059
- CGTGCTCA — higher, -0.0222 ± 0.013
- CCACGACG — higher, 0.108 ± 0.064
- CGCACTCA — higher, 0.195 ± 0.014
- CGATAGAG — higher, -0.111 ± 0.042
- ATTCCAAA — within error, -0.167 ± 0.069
- TGACCACA — higher, 0.195 ± 0.012
- GGCCGGCA — higher, -0.111 ± 0.038
- AAACATAG — higher, -0.0819 ± 0.082
- ACTTCTAG — higher, 0.138 ± 0.013
- AAGTGCGG — higher, 0.273 ± 0.027
- CCATTGTC — higher, -0.0217 ± 0.066
- ATTGGGGG — higher, -0.00984 ± 0.018
- AGCCGTAG — within error, -0.247 ± 0.058
- GCCAGTAA — higher, 0.187 ± 0.052
- ACATGTTC — higher, 0.0658 ± 0.071
- ACAATAGA — within error, -0.149 ± 0.042
- CAGATCCG — higher, 0.0392 ± 0.049
- AAATAGCC — higher, -0.115 ± 0.041
- CACAACTG — higher, 0.233 ± 0.042
- GGCAGCAC — higher, 0.143 ± 0.045
- CTTGGAAC — within error, -0.26 ± 0.046
- GGTCCGGA — higher, -0.139 ± 0.0059
- CGATGTTC — higher, 0.136 ± 0.014
- CTATACAA — within error, -0.252 ± 0.033
- TAATAATA — higher, -0.117 ± 0.039
- ATTGGTGC — higher, 0.211 ± 0.006
- GCGGCGCA — higher, -0.0551 ± 0.041
- GAACAAGA — higher, -0.0736 ± 0.057
- GTTCTGAA — within error, -0.276 ± 0.049
- CGGAGCGC — higher, 0.0693 ± 0.058
- TAGGCTCA — higher, 0.00589 ± 0.017
- CAGCACCA — higher, 0.0555 ± 0.055
- CGGTCTAA — higher, -0.0857 ± 0.068
- CGGGCGTA — higher, 0.0447 ± 0.035
- TCTTGACA — higher, 0.315 ± 0.0035
- ACTAAGTG — higher, 0.194 ± 0.0028
- GAGGAGCA — within error, -0.273 ± 0.1
- ATCGTTTC — higher, 0.0957 ± 0.035
- GCAAAGCC — higher, -0.0351 ± 0.015
- AAAACTAG — within error, -0.202 ± 0.034
- CCAGAACA — higher, -0.102 ± 0.0084
- CATTATCC — higher, -0.11 ± 0.049
- CACGGTAC — higher, 0.0169 ± 0.071
- GCGTTCTA — higher, 0.014 ± 0.0024
- AAAGATGG — higher, -0.143 ± 0.012
- GAAGTATA — higher, 0.0119 ± 0.039
- GAGCATGA — higher, 0.047 ± 0.036
- CCTGCACC — higher, 0.0879 ± 0.015
- CAATCTGA — within error, -0.278 ± 0.032
- CAGCTCAC — higher, 0.178 ± 0.037
- CTTTGTCC — higher, 0.16 ± 0.013
- ACCAACAG — higher, 0.118 ± 0.031
- ACCCCGCC — higher, 0.0747 ± 0.091
- CCCGCCCA — higher, 0.115 ± 0.013
- AACCTGGT — higher, 0.017 ± 0.096
- ACTAGCCT — higher, -0.0352 ± 0.018
- ACCAGGAA — higher, -0.142 ± 0.016
- ACACCCCT — higher, 0.385 ± 0.013
- AGTGGCGC — higher, 0.221 ± 0.03
- GCGTACCA — within error, -0.126 ± 0.077
- GGCAGACC — within error, -0.257 ± 0.013
- AGGGTGTG — higher, 0.449 ± 0.011
- GAGTCGGC — within error, -0.178 ± 0.0069
- CGTCAGAA — higher, -0.00445 ± 0.048
- CTCTTTCA — higher, 0.0408 ± 0.03
- ACCTTCGT — higher, 0.197 ± 0.058
- AATCCGCC — higher, -0.0867 ± 0.025
- AAATGCTT — higher, 0.0037 ± 0.014
- CCGATCGG — higher, 0.0608 ± 0.026
- CTCCATGC — higher, -0.000665 ± 0.013
- ACGTTAGT — higher, -0.0971 ± 0.061
- CCCCTTCA — within error, -0.158 ± 0.014
- TCAGCACA — higher, 0.146 ± 0.028
- ACGGATGA — higher, -0.085 ± 0.053
- ATCCAGAT — within error, -0.102 ± 0.095
- GTTCGGAA — higher, -0.00327 ± 0.097
- GGCTAGGA — within error, -0.184 ± 0.023
